Our source for the binding signal values is paper PMC12136788.

Sequences and labels used below:
T1: UNK ZnF1-3 (human, UniProt Q9C0B0 31-174)
T1 sequence: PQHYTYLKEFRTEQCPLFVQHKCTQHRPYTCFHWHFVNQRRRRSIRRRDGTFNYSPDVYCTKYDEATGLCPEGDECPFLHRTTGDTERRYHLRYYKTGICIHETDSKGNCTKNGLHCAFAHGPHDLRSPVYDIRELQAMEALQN

B1: chr12:105553856:105553857:+_ENSG00000136051_ENST00000332180|hu_mus|FALSE|FALSE (ssRNA)
RNA: GGGAGUUCUACAGUCCGACGAUCAAUGAUAUAGAAAUUUCGGAGAUGUAUAUUCUUUGGCCUUCGAAAUUCUGGAGCAAAAACAUCUACAAGCAUUUUGAAAUAUUCUGUACCUUCAGCAGAGUUCCGUGUAUGAUCACUGAGCAACAGAGGAUUGAGCAUCA
B2: chr19:24183184:24183185:-_ENSMUSG00000024812_ENSMUST00000099558|mus_hu|FALSE|FALSE (ssRNA)
RNA: GGGAGUUCUACAGUCCGACGAUCUGUAGCUGUAAAAAGGUGUGCACACGUUUUUUUAAGCUUGUUGGCUUGAUCAAAUAACUUUCGAGAACUUUUGUUGGACGUUGGAUUUAACCUUUGUCUCAUGGUUUUGACACCUUGUCUCAACAGAGGAUUGAGCAUCA
B3: chr8:133807003:133807004:+_ENSG00000129292_ENST00000220847|hu_hu|FALSE|FALSE (ssRNA)
RNA: GGGAGUUCUACAGUCCGACGAUCCUUUGUUAAUUGCUUCAAUCUUGGCAGGGUAAUAGCGACAGUCUGUCCAACGAGCCAGAACUUCUUCUCCAGCUUUAAAAUCAAAGAAAUCUUCCUCAUCUUUUAGCCCUUCUUUUCUUACAACAGAGGAUUGAGCAUCA
B4: chr9:95013113:95013114:-_ENSG00000196305_ENST00000443024|hu_hu|hu_hu_hu_mus_False|28_108 (ssRNA)
RNA: GGGAGUUCUACAGUCCGACGAUCCUCAGUGAGAAAAGGCGUGUAAGGGGCCAUCAGUCUGCACAGAGAAAGCAGGACACUGAACAGUGUCUCCAGAGCCAUGACACAAUCCUCCAUCCCACUCUCACCCUUUAACCUCCUCCUCAACAGAGGAUUGAGCAUCA
B5: chr17:85393198:85393199:+_ENSMUSG00000061130_ENSMUST00000080217|mus_hu|FALSE|FALSE (ssRNA)
RNA: GGGAGUUCUACAGUCCGACGAUCAUGUGUUGAGCAGUAAUUUGCCACUCGGGAUCCAGCAUGACCAUCAUAAACUGCAAAAAAUGACCAGUCUUCCAAGCCGUGAGGAAUACCUACAACAGCUGUGUGUGCAUCUUCCAUUUCCAACAGAGGAUUGAGCAUCA
B6: chr19:8913615:8913616:-_ENSMUSG00000071658_ENSMUST00000096259|mus_hu|mus_mus_mus_hu_False|48_108 (ssRNA)
RNA: GGGAGUUCUACAGUCCGACGAUCAGGGGGGCACCAACUUCUGCCUGAAAUGGGUGCCCCACCCAGUAGGGAGUUGCAGCUGAAAGUAUCCGUAGCAGAAGCAGUGACUAUACGAAAGGAGGCCCCUGGGGAGGGCCAGGCCAGCAACAGAGGAUUGAGCAUCA
B7: 225965591_225965711_113_CDS_ENSG00000143742_ENST00000366839|human|control|control (ssRNA)
RNA: GGGAGUUCUACAGUCCGACGAUCCAUAGGGUCAGCGAGGUAAAGCUUCUCGGCAGCGCGGCUGAACUCCUCCCAGGUCUGGUACUGCGGCAUCGUGGCCUAGAGUGGAAAAGUAAAGAGAAGCAAGGCCUCAGAACCCGGCCCCAACAGAGGAUUGAGCAUCA
B8: chr9:74900086:74900087:+_ENSMUSG00000007656_ENSMUST00000169492|mus_mus|FALSE|FALSE (ssRNA)
RNA: GGGAGUUCUACAGUCCGACGAUCUUGUCCCAAGUGAGGAUACCUUGCCUUUAACUUUGCUUCUUCAGCUUUCUCUGGACUAGUUACUUUAUCUUCCAUUUCCUUUUGCUCCUCCGCAGACGCUGCCUCGGGGACUUCCGCGGACAACAGAGGAUUGAGCAUCA
B9: 90161196_90161316_2667_3pUTR_ENSMUSG00000044783_ENSMUST00000054674|mouse|control|control (ssRNA)
RNA: GGGAGUUCUACAGUCCGACGAUCGUCAGCCCAAGCUAUGCAAGACUGCCUCAAAAACCAAAUAAAACAUCUCCCCCACCCCCACAACCAGCGCUCUUAAGACUAAGCCGAGAGGUGUGAACAGCGUUCUGUCAUGACUCAACUCAACAGAGGAUUGAGCAUCA
B10: 56504298_56504502_1345_CDS_ENSG00000151914_ENST00000244364|human|control|control (ssRNA)
RNA: GGGAGUUCUACAGUCCGACGAUCAUAAGCAACUUCCUCCUCUUCUUUUUCAUUCAACCAAAUAAGUUCAUUAGUCGCACGACUUACAAAAUUAUGGAGUGUAUCAAGGUGCCGUUCUUGAUUCCUGGAUGUAUUCAAGAGUUUCAACAGAGGAUUGAGCAUCA
B11: chr1:89346535:89346536:+_ENSMUSG00000048000_ENSMUST00000174671|mus_mus|FALSE|FALSE (ssRNA)
RNA: GGGAGUUCUACAGUCCGACGAUCAAGAUGCCUCUUAAACGAGACAAAUUUUCACAUAAGGGCCCAAAACAAACUGGUCCUAGUCCUUGAAGUAAAAAUAUUUAUGGGAGGAGGGGAGAUCAGUUUUUAUAUGAAAGGAAAAUUCAACAGAGGAUUGAGCAUCA
B12: chr11:47660561:47660562:-_ENSG00000109919_ENST00000530428|hu_mus|motif|central (ssRNA)
RNA: GGGAGUUCUACAGUCCGACGAUCAGCAUAGCAAAAGAGGCCAGGAAGCUGACAUACUUGUCGCCCAAAAAUAUUUCGUCCGGUUGUUGGAGGAAGAGGCUCAUAUCCCACCUGGAUGAGCACUUUCACGUACAUGAGCGGCUGCAACAGAGGAUUGAGCAUCA
B13: 9552617_9559936_1471_CDS_ENSMUSG00000048264_ENSMUST00000174552|mouse|control|control (ssRNA)
RNA: GGGAGUUCUACAGUCCGACGAUCACUUCGUGUCCAUAGUUUGCCAUAAGUGAGGAUGUACAGGGGCUUUCCAUUUGUGUCCAUGGUGGUCAGGCAGGGGGCCUUCGGGGAGAUGGUCCCCCAUCGUUGUAGUGCAGCUUCUAACAACAGAGGAUUGAGCAUCA
B14: chr11:52220846:52220847:+_ENSMUSG00000036275_ENSMUST00000036952|mus_hu|FALSE|FALSE (ssRNA)
RNA: GGGAGUUCUACAGUCCGACGAUCAAAAGUAGCAUCACUAAUACUUCCAGAAGAAGCAUAAUAAAUCUAAAACAAUAAAAACUAACAGUGUAAAUAUAAGGUAAUGUUUAACUCACAUUUUGGACACCUGAUUAAACUCAGCUCCAACAGAGGAUUGAGCAUCA
B15: chrX:71549400:71549401:+_ENSMUSG00000019087_ENSMUST00000019231|mus_hu|mus_mus_mus_hu_False|68_78 (ssRNA)
RNA: GGGAGUUCUACAGUCCGACGAUCGCAGUAGGAAGAGGGAAGCUCUUCAGUCCAGUGGUCACAAAACAGAAACAUGAACAACACGGACACCGUCCCACCCUCAACCCCCCCACUGGCACAGGGUCACACAAUCUGGGUCAAAGACAACAGAGGAUUGAGCAUCA
B16: chr2:232320318:232320319:-_ENSG00000115053_ENST00000322723|hu_hu|hu_hu_hu_mus_True|18_18 (ssRNA)
RNA: GGGAGUUCUACAGUCCGACGAUCACUAUUAAAGUCUACAAAACCAAACCCUUUGGAAGAACCAGUUUCCCGAUCAGUGACUAUUCUUGCACGAACAGAGCCCUCAAAUGAUUCUUUUAAUGUCUCUUCAGUGGUAUCCUCAGACAACAGAGGAUUGAGCAUCA
B17: chr12:111931289:111931290:-_ENSMUSG00000021270_ENSMUST00000094361|mus_hu|FALSE|FALSE (ssRNA)
RNA: GGGAGUUCUACAGUCCGACGAUCGAUAUAAUAGAUAUGUUUCUGGUUCUCCUUCAUUCUGGUGCAGUAGUCCUUGAGAGAAACCAUCUCAUCACCAGAGGCAGAUGUGUAGUACCUUAACAGCUCUGAAAGCUUCUUCCGAUUCAACAGAGGAUUGAGCAUCA
B18: chrX:140365796:140365797:-_ENSMUSG00000031285_ENSMUST00000033642|mus_mus|mus_mus_mus_hu_False|18_78 (ssRNA)
RNA: GGGAGUUCUACAGUCCGACGAUCCUUCUCAUUACUCAGUGCCUGCAAGGUUCUGGUUCUGUAGAAGCUACAGUGGGCGCUGUGAGUGGGGCUAGGCAACCCAUUCAUCCGGGAGCCUCUCAUAUUUCUGGAUGUCUUAUCUCUCAACAGAGGAUUGAGCAUCA
B19: chr1:78428562:78428563:-_ENSG00000162613_ENST00000370768|hu_hu|FALSE|FALSE (ssRNA)
RNA: GGGAGUUCUACAGUCCGACGAUCAAUUGUAAAUAACUUCAUAUUAGGAUCUGCAUUUGGUGGAGGAUUUCUCUGAAGUUCUAUUCUUGCACCAGACUGCUGGCUUAUGCUUUUUAUGGUUUCACCUCCUUUUCCUAUUAUUAACAACAGAGGAUUGAGCAUCA
B20: 32628072_32628902_1011_CDS_ENSG00000025800_ENST00000373625|human|control|control (ssRNA)
RNA: GGGAGUUCUACAGUCCGACGAUCGUCAUCCCCAGUGACGAUGUUACCCACGGCUCUCAGGGCAGGAGAAGCCACUUUGUAAUCAUUGUGCAUCAGCAGCUCUACCAAUCUCCGGCAGACUCCGGAGUCUAUGACUGCCUGGAUCAACAGAGGAUUGAGCAUCA
B21: chrX:41002637:41002638:+_ENSG00000124486_ENST00000378308|hu_mus|FALSE|FALSE (ssRNA)
RNA: GGGAGUUCUACAGUCCGACGAUCUGCUGCCCAGAUAUUAUCAAGAUCUUGCAAGGUCAGAGCUUUUUCUUUUAUGACAAAGCGAAGAAUCUUUUCUAGUUUCUCUACAUACUGUGGUUGAUGAAGGCUAUCUCGUAAAACUAUCAACAGAGGAUUGAGCAUCA
B22: 21856164_21856284_243_5pUTR_ENSMUSG00000003410_ENSMUST00000003501|mouse|control|control (ssRNA)
RNA: GGGAGUUCUACAGUCCGACGAUCGAGGAGGAGAUGGAGGCGGCGGCGCCUUCGAAGGCCGGGAACUGACCCGAGCCUGGGGAUGCGCGCUUCGACGGCCAGACCCCCAGCGGCAGGUGGAUGGAGGGAGCGGGCACGCAGUGGCAACAGAGGAUUGAGCAUCA

Some of the results follow.

For the experiment, the target named is T1, UNK ZnF1-3. Nature of the experiment: nsRBNS (natural sequence RNA bind-n-seq); RBNS binding buffer (assumed for nsRBNS): 25 mM Tris pH 7.5, 150 mM KCl, 3 mM MgCl2, 0.01% Triton X-100, 500 ug/ml BSA, 20 U/ml SUPERase-In, 4 C; UNK is unkempt and MSI1 is Musashi-1; names of the RNAs are library labels; protein concentration not given here; high values mean tight binding.
Consider B1, for which the binding signal turned out to be 0.56 enrichment R.
For the molecule B2, the binding signal was 0.72 enrichment R.
The figure for B3 is 0.753 enrichment R; for B4 it is 1.3 enrichment R; for B5 it is 1.39 enrichment R.
The figure for B6 is 1.08 enrichment R.
In turn, B7 gave a binding signal of 0.889 enrichment R.
The figure for B8 is 0.364 enrichment R.
As for B9, the figure is 1.54 enrichment R; as for B10, 1.01 enrichment R.
As for B11, the figure is 1.04 enrichment R; as for B12, 1.75 enrichment R.
As to B13, the binding signal worked out at 1.21 enrichment R.
Turning to B14, the binding signal was 2.34 enrichment R.
As for B15, the figure is 1.52 enrichment R; as for B16, 0.937 enrichment R.
Molecule B17 displayed a binding signal of 0.697 enrichment R.
Molecule B18 came in with a binding signal of 0.609 enrichment R.
The figure for B19 is 0.732 enrichment R; for B20 it is 0.842 enrichment R; for B21 it is 1.04 enrichment R.
For the molecule B22, the binding signal came out at 1.26 enrichment R.
